Test results from US20130337564A1, “Treatment of Pluripotent Cells” (Janssen Biotech, Inc., priority 2012, published 2013).
Several values for one entry are separate records, joined by “and”; a condition that tells them apart may be missing. Identical values can stand only once. At least one read-out could not be matched to a standard name with certainty.

Legend:
Type in all cases: cell-based
[1] = test system: cells expressing pluripotency markers derived from human embryonic stem cells; test: MTS viability (toxicity) assay of cells expressing pluripotency markers; set-up: Raw data (duplicate), first replicate / Average: unit not given here; conditions: MTS viability assay raw reading
Experimental: Derivation and maintenance of cells expressing pluripotency makers was conducted as has been described in Example 2. Cells were grown in DMEM:F12 supplemented with 2% FCS (Invitrogen), 100 ng/ml Activin A, 20 ng/ml Wnt-3a, and 50 ng/ml IGF (R&D Biosystems). Cells were seeded at a density of 10,000 cells/cm^2 on Falcon polystyrene flasks and grown in monolayer culture at 37° C., 5% CO2, low oxygen. After reaching 60-70% confluence, cells were passed by washing the monolayer with PBS and incubating with TrypLE (Invitrogen) for 3-5 minutes to allow detachment and single cell dispersal.
Screening was conducted using test compounds from a proprietary library of small molecules selected for their ability to inhibit GSK-3B enzyme activity. Compounds from this library were made available as 1 mM stocks, in a 96-well plate format in 50 mM HEPES, 30% DMSO. For assay, cells expressing pluripotency markers were washed, counted, and plated in normal culture medium at a seeding density of 20,000 cells per well in 96-well clear-bottom, dark-well plates (Costar). This seeding density was previously determined to yield optimal monolayer formation in overnight culture. On the following day, culture medium was removed, cell monolayers were rinsed three times with PBS, and test compounds were added to the wells in 80 μl aliquots, each diluted into assay medium at a final assay concentration of 10 μM. On day 2 of the assay, medium was removed from each well and replaced with a fresh aliquot of test compounds diluted into assay medium. Assay medium on days 1 and 2 of culture consisted of DMEM:F12 supplemented with 0.5% FCS and 100 ng/ml Activin A. On days 3 and 4 of culture, medium was removed from each well and replaced with DMEM:F12 supplemented with 2% FCS and 100 ng/ml Activin A (no test compound). On day 4 of assay, 15 μl of MTS (Promega) was added to each well and plates were incubated at 37° C. for 1.5 to 4 hours prior to reading optical density at 490 nm on a SpectraMax (Molecular Devices) instrument. Statistical measures consisting of mean, standard deviation, and coefficient of variation were calculated for each duplicate set. Toxicity was calculated for each test well relative to a positive control (wells treated with Activin A and Wnt3a on days 1 and 2 of culture).
A larger proportion of the compounds have minimal or no measurable toxicity in this cell-based assay.
A small panel of select compounds was repeat tested over a narrow dose titration range, again using cells expressing pluripotency markers in a similar assay as described above.

[2] = test system: human embryonic stem cells (H9 or H1 lines); test: Plate reader (MTS) proliferation assay; conditions: for Raw Data: replicate wells, plate reader proliferation screen of GSK-3B inhibitors
In short: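 H9 or H1 cells on Matrigel, washed, then given DMEM:F12 with 0.5% FCS, 100 ng/ml activin A and 10 μM compound (days 1–2), then 2% FCS plus activin A (days 3–4). MTS added day 4, OD490 read after 1.5–4 h at 37 °C; triplicates as percent of activin A/Wnt3a control.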

[3] = test system: HNF-3beta expression in human embryonic stem cells (H9 line); test: High content screening assay: HNF-3beta protein expression (differentiation); conditions: total intensity normalised to Wnt 3a/AA control
Experimental: (§1) Maintenance of human embryonic stem cells (H9 line) was conducted as described in Example 1. Colonies of cells were maintained in an undifferentiated, pluripotent state with passage on average every four days. Passage was performed by exposing cell cultures to a solution of collagenase (1 mg/ml; Sigma-Aldrich) for 10 to 30 minutes at 37° C. followed by gentle scraping with a pipette tip to recover cell clusters. Clusters were allowed to sediment by gravity, followed by washing to remove residual collagenase. Cell clusters were split at a 1:3 ratio for routine maintenance culture or a 1:1 ratio for immediate assay. The human embryonic stem cell lines used were maintained at passage numbers less than passage 50 and routinely evaluated for normal karyotypic phenotype and absence of mycoplasma contamination.
(§2) Cell clusters used in the assay were evenly resuspended in normal culture medium and plated onto MATRIGEL-coated 96-well Packard VIEWPLATES (PerkinElmer) in volumes of […]. MEF conditioned medium supplemented with 8 ng/ml bFGF was used for initial plating and recovery. Daily feeding was conducted by aspirating spent culture medium from each well and replacing with an equal volume of fresh medium. Plates were maintained at 37° C., 5% CO2 in a humidified box throughout the duration of assay.
(§3) Screening was conducted using test compounds from a proprietary library of small molecules selected for their ability to inhibit GSK-3B enzyme activity. Compounds from this library were made available as 1 mM stocks, in a 96-well plate format in 50 mM HEPES, 30% DMSO. Screening compounds were tested in triplicate or duplicate sets. Primary screening assays were initiated by aspirating culture medium from each well followed by three washes in PBS to remove residual growth factors and serum. Test volumes of 80 to 100 μl per well were added back containing DMEM:F12 base medium (Invitrogen) supplemented with 0.5% FCS (HyClone) and 100 ng/ml activin A (R&D Biosystems) plus 10 μM test compound. Positive control wells contained the same base medium, substituting 10-20 ng/ml Wnt3a (R&D Biosystems) for the test compound. Negative control wells contained base medium with 0.5% FCS and activin A alone (AA only) or alternatively, 0.5% FCS without activin A or Wnt3a (no treatment). Wells were aspirated and fed again with identical solutions on day 2 of assay. On days 3 and 4, all assay wells were aspirated and converted to DMEM:F12 supplemented with 2% FCS and 100 ng/ml activin A (without test compound or Wnt3a); parallel negative control wells were maintained in DMEM:F12 base medium with 2% FCS and activin A (AA only) or alternatively, 2% FCS without activin A (no treatment).
(§4) At the end of culture, cells in 96-well plates were fixed with 4% paraformaldehyde at room temperature for 20 minutes, washed three times with PBS, and then permeabilized with 0.5% Triton X-100 for 20 minutes at room temperature. Alternatively, cells were fixed with ice cold 70% ethanol overnight at −20° C., washed three times with PBS, and then permeabilized with Triton X-100 for 5 minutes at 4° C. After fixing and permeabilizing, cells were washed again three times with PBS and then blocked with 4% chicken serum (Invitrogen) in PBS for 30 minutes at room temperature. Primary antibodies (goat anti-human Sox17 and goat anti-human HNF-3beta; R&D Systems) were diluted 1:100 in 4% chicken serum and added to cells for one hour at room temperature. Alexa Fluor 488 conjugated secondary antibody (chicken anti-goat IgG; Molecular Probes) was diluted 1:200 in PBS and added after washing the cells three times with PBS. To counterstain nuclei, 5 mM Draq5 (Alexis Biochemicals) was added for five minutes at room temperature. Cells were washed once with PBS and left in […] PBS for imaging.
(§5) Cells were imaged using an IN Cell Analyzer 1000 (GE Healthcare) utilizing the 51008bs dichroic for cells stained with Draq5 and Alexa Fluor 488. […]

[4] = test system: human embryonic stem cells (H9 line); test: High content screening assay: cell number (proliferative response); conditions: normalised to Wnt 3a/AA control
Experimental: as §1, §2, §3, §4, §5

[5] = test system: Sox17 expression in human embryonic stem cells (H9 line); test: High content screening assay: Sox17 protein expression (differentiation); conditions: total intensity normalised to Wnt 3a/AA control
Experimental: as §1, §2, §3, §4, §5

[6] = proliferation of human embryonic stem cells, AA/Wnt3a = 100.0, no cells = 0.0
[7] = cell number in the wells analysed for HNF-3b expression
[8] = cell number in the wells analysed for SOX-17 expression
[9] = relative to AA/Wnt3a/DMSO positive control (100.0) of the same plate

Row | SMILES | Raw data (duplicate), first replicate ([1]; replicate 1) | Raw data (duplicate), second replicate ([1]; replicate 2) | Average (of Raw Data) ([2]; plate reader raw signal, mean of replicate wells, proliferation of human embryonic stem cells) | % Control [2, 6] | HNF-3b Expression Fold over Wnt 3a/AA control [3] | Proliferative Response Fold over Wnt 3a/AA control [4, 7] | Proliferative Response Fold over Wnt 3a/AA control [4, 8] | SOX-17 Expression Fold over Wnt 3a/AA control [5] | % Control [2, 9] | Raw Data [2]
1 | CC1CCC(C(C)C)C(n2ccc(C3=C(c4cn(CCCO)c5ncccc45)C(=O)NC3=O)n2)C1 (stereo not drawn) [Compound 28, 3-[1-(3-Hydroxypropyl)-1H-pyrrolo[2,3-b]pyridin-3-yl]-4-(1-menthyl-1H-pyrazol-3-yl)-1H-pyrrole-2,5-dione] | 0.643 and 0.282 | 0.638 and 0.293 | 0.1160 and 0.1166 | −0.2% and −0.1% |  |  |  |  |  | 
2 | COc1ccccc1C1=C(c2cn(-c3ccc4ccccc4c3)c3ncccc23)C(=O)NC1=O [Compound 23, 3-[2-(Methyloxy)phenyl]-4-(1-naphthalen-2-yl-1H-pyrrolo[2,3-b]pyridin-3-yl)-1H-pyrrole-2,5-dione] |  |  |  | 40.9% | 0.4335 fold | 0.007741 fold | 0.04889 fold | 0.0409 fold |  | 
3 | COCCCn1cc(C2=C(c3ccccc3O)C(=O)NC2=O)c2cccnc21 [Compound 22, 3-(2-Hydroxyphenyl)-4-{1-[3-(methyloxy)propyl]-1H-pyrrolo[2,3-b]pyridin-3-yl}-1H-pyrrole-2,5-dione] |  |  |  | 25.5% | 0.0911 fold | 0.00134 fold | 0.01806 fold | 0.0126 fold |  | 
4 | Cn1cc(C2=C(c3nn(CCCn4ccnc4)c4ccccc34)C(=O)NC2=O)c2cc(Cl)ccc21 [Compound 231, 3-(5-Chloro-1-methyl-1H-indol-3-yl)-4-{1-[3-(1H-imidazol-1-yl)propyl]-1H-indazol-3-yl}-1H-pyrrole-2,5-dione] |  |  |  |  | 0.4938 fold | 0.723 fold | 0.9001 fold | 0.8113 fold | 113.8% | 1.5168 and 1.6872
5 | COc1ccccc1C1=C(c2cn(CCCNC(=O)OC(C)(C)C)c3ncccc23)C(=O)NC1=O [Compound 26, 1,1-Dimethylethyl [3-(3-{4-[2-(methyloxy)phenyl]-2,5-dioxo-2,5-dihydro-1H-pyrrol-3-yl}-1H-pyrrolo[2,3-b]pyridin-1-yl)propyl]carbamate] |  |  |  | 28.1% | 0.1047 fold | 0.002632 fold | 0.06028 fold | 0.0903 fold |  | 
6 | COc1ccccc1C1=C(c2cn(-c3cccnc3)c3ccccc23)C(=O)NC1=O [Compound 216, 3-[2-(Methyloxy)phenyl]-4-(1-pyridin-3-yl-1H-indol-3-yl)-1H-pyrrole-2,5-dione] |  |  |  |  | 0.2767 fold | 0.5392 fold | 0.3911 fold | 0.2598 fold | 76.9% | 0.8079 and 1.4391
7 | O=C1NC(=O)C(c2cn(CCCO)c3ncccc23)=C1c1cccs1 [Compound 17, 3-[1-(3-Hydroxypropyl)-1H-pyrrolo[2,3-b]pyridin-3-yl]-4-thiophen-2-yl-1H-pyrrole-2,5-dione] |  |  |  | 33.9% | 0.0946 fold | 0.001612 fold | 0.08778 fold | 0.0850 fold |  | 
8 | O=C1NC(=O)C(c2cn(CCCO)c3ncccc23)=C1c1cn(CCO)cn1 [Compound 183, 3-[1-(2-Hydroxyethyl)-1H-imidazol-4-yl]-4-[1-(3-hydroxypropyl)-1H-pyrrolo[2,3-b]pyridin-3-yl]-1H-pyrrole-2,5-dione] |  |  |  |  | 0.0062 fold | 0.004207 fold | 0.004192 fold | 0.0016 fold | 24.9% | 0.2395 and 0.3235 and 0.1333
9 | Cn1ccc(C2=C(c3cn(CCCO)c4ncccc34)C(=O)NC2=O)n1 [Compound 209] |  |  |  |  | 0.7718 fold | 0.5018 fold | 0.296 fold | 0.6282 fold | 67.4% | 1.5225 and 1.5912 and 0.1081
10 | O=C(Nc1ccc(C(=O)N2CC3CSCCN3Cc3ccccc32)c(Cl)c1)c1cc(Cl)cc(Cl)c1 (stereo not drawn) [Compound 166, 3,5-Dichloro-N-[3-chloro-4-(3,4,12,12a-tetrahydro-1H-[1,4]thiazino[3,4-c][1,4]benzodiazepin-11(6H)-ylcarbonyl)phenyl]benzamide] |  |  |  |  | 0.3921 fold | 0.6211 fold | 0.3363 fold | 0.3702 fold | 180.4% | 1.7591 and 1.6274 and 1.6518
